Data: the RNAGym collection of RNA variant scans (doi:10.7554/elife.90254)
The source gives no read counts; variants with many changes may rest on few reads.

B1: LINE1-mini (parent)
chain: GGCAGAGCUCAACACAGCGUGGCAAAGUGGCUGUGGCUAGACUGCC

Variants of: B1
Test: self-cleavage, relative activity (ratio to wild type); higher = more cleavage; in vitro, sequencing; the parent is a self-cleaving ribozyme

| Variant | self-cleavage |
| --- | --- |
| G19U G29U A41U | 0.15 |
| G19C C23A C37A | 0.01 |
| G19A C31G C45U | 0.25 |
| G19A U38C C46A | 1.15 |
| G19C A25C C42U | 0.1 |
| G19A G21A A26C U28A | 2.58 |
| U20A A25U G40A | 0.06 |
| G19A G30A G36C C37G | 0.05 |
| G19A A39U G40U A41G G44A | 0.19 |
| G19U C31G U32C C45G | 0.05 |
| G19U A25C C46G | 0.29 |
| G19A G33U C46G | 0.03 |
| U20A A26C C46U | 0.24 |
| U20A A39C C42A | 0.05 |
| G19C U28A U34A C45U | 0.98 |
| G19A A39C A41U | 1.21 |
| G19A C31A C45U | 0.56 |
| G19C G22U U28A | 0.13 |
| G19A U20C G30U G33A | 0.44 |
| G19U U20A G21U | 0.22 |
| G19C G21C G35U | 0.01 |

| Variant | self-cleavage |
| --- | --- |
| G19A A26G G29C A39G | 0.06 |
| G19C G22A A26U | 0.24 |
| U20A G22A C23A | 1.66 |
| G19U C42A G44U | 0.05 |
| U20A A24C A25U | 0.54 |
| U20A C23A A25C | 0.36 |
| G19A C37A U43A | 0 |
| G19U A26G C42G | 0.02 |
| G19U A24U G29C U43A | 0.05 |
| G19C C23A A39G | 0.08 |
| G19U G33U C45A | 0.04 |
| G19U C23U A26U A39G | 0.04 |
| G19U G30U U32C | 0.23 |
| G19A A26G G35U | 0.02 |
| G19U U20A C31G | 0.56 |
| G19U U38G C46U | 0.02 |
| G19A G21A G40C | 0.2 |
| G19C U34A C42U | 0.08 |
| G19C G35A C45U | 0.19 |
| G19A G21A C31G | 0.1 |
| G19U U32G G33U | 0.04 |

| Variant | self-cleavage |
| --- | --- |
| G19C G27U G30C | 0.1 |
| G19U U20A U32G U38G | 0.02 |
| U20A G22A G36C | 0.16 |
| G19U G33A C37G | 0.05 |
| G19A G21C G30U C37G | 0.01 |
| U20A A25U G27A | 1.16 |
| G19U U20A C23A C37A U43C | 0.02 |
| G19C G21C U28G | 0.2 |
| U20A A25U G35A | 0.09 |
| G19A G40A C46U | 0.02 |
| G19U G29U G30U G36U C46A | 0.03 |
| G19C A26U A41U | 0.25 |
| G19U A26U C46A | 1.32 |
| G19U G21A A24C | 1.04 |
| G19A U34C C45G | 0 |
| G19U G27C G44C | 0.28 |
| G19A G36C C45U | 0.08 |
| G19U G30A G40U C46U | 0.19 |
| G19C G29C G36C U43C | 0.04 |
| U20A A24C A41U | 0.23 |
| G19A C23G A39C | 0.15 |

| Variant | self-cleavage |
| --- | --- |
| G19U G22A C45U | 0.91 |
| G19C A25G C46A | 1.26 |
| G19C C31U A39U | 0.25 |
| G19A G30A C37U | 0.03 |
| U20A A24U A39G | 0.05 |
| G19U U20A U43G | 0.03 |
| G19A A41C C46U | 0.01 |
| G19U C31G G35U | 0.04 |
| G19A C23A A26G G29C C42A | 0.03 |
| U20A A24C G29U A41U | 0.27 |
| U20A G21A C23U A24C C42G | 0.1 |
| G19U C23A G27C G30U | 2.51 |
| G19U C42G G44U | 0.01 |
| G19A U20A G35U | 0.06 |
| G19U A25U C45U | 2.06 |
| G19A G22C C31A A39G C42G | 0.02 |
| G19U U20C G21A A39U | 0.69 |
| U20A C23U C31G U32A | 0.07 |
| U20A C23U A26G G29U | 0.88 |
| G19A A24U A39G A41C C42G | 0.07 |
| G19A U20C G27A A39U | 0.05 |
